# According to publication PMC12136788:
# This is one part of the list.
# T1: UNK ZnF1-3 (human, UniProt Q9C0B0 31-174)
# T1 sequence: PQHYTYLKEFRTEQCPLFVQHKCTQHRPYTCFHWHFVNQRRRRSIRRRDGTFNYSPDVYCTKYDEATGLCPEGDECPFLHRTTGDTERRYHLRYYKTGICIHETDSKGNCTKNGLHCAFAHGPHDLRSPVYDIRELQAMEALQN
# B1: chr11:77336104:77336105:-_ENSG00000074201_ENST00000525064|hu_mus|hu_hu_hu_mus_False|18_78 (ssRNA)
# RNA: GGGAGUUCUACAGUCCGACGAUCCUCACACAUUGCUGUGAACAUCGCCUCCAAUGCUGAUUUAUCACUGGGCACAAAUCGAAAUUCAGAAAUGGGUUCAACAUCAUCAUUGUCUUCUUCCUCUUCUUCAGAGAGAGGUUCUUUCAACAGAGGAUUGAGCAUCA
# B2: chr9:14120538:14120539:-_ENSG00000147862_ENST00000380959|hu_mus|FALSE|FALSE (ssRNA)
# RNA: GGGAGUUCUACAGUCCGACGAUCCUUCAGAGUAUCCUGAGGAUUCAGGUGAGGAGGAUAUCUGAUUGUUGGAUGAGAGAAGUAGCUGGAAGGUGCCGGAGGAAGGAUAGCUUGCGUCGGAAAUGGCAACGGUGAGGGCGGAGGCAACAGAGGAUUGAGCAUCA
# B3: chr2:78760142:78760143:+_ENSMUSG00000027011_ENSMUST00000028398|mus_hu|motif|central (ssRNA)
# RNA: GGGAGUUCUACAGUCCGACGAUCGGUCCACUGUCUGGCUAUCCUGUCGUGUUCUGCUCUGUUGGUCAAAUACUGAGUGGCGGUGCUUCCAACCAGAGGAUCCGCAGGGUUGCAGUCUGUCAAAAGGGAACAAAUAGACAGCAACAACAGAGGAUUGAGCAUCA
# B4: chr17:7417611:7417612:+_ENSG00000181222_ENST00000322644|hu_mus|FALSE|FALSE (ssRNA)
# RNA: GGGAGUUCUACAGUCCGACGAUCGACAAAAAAGCCUAUCAAAAAUGGGGUCCAGAACUUCCAGAGGGUUUUGUCACAAGGAGUUAUGUACAAGGGACCCAGGGUAGGGUCACAGCCUGUGAGGUGAGGGAAGUGACACACAGGCAACAGAGGAUUGAGCAUCA
# B5: chr12:46623017:46623018:-_ENSG00000111371_ENST00000398637|hu_hu|FALSE|FALSE (ssRNA)
# RNA: GGGAGUUCUACAGUCCGACGAUCGAGUCCCAAAAUCCCACUGCCCAUAAUGGCGUUGCUUAGGUUAAAAACAGACAUGCCUAAGGAGGUUGUACCUGGAAUAUACUCAUCACACUUCUUUUUUUCCAAAUGGCUGUUUGUGAGCAACAGAGGAUUGAGCAUCA
# B6: chr16:75203323:75203324:+_ENSG00000184517_ENST00000393430|hu_hu|FALSE|FALSE (ssRNA)
# RNA: GGGAGUUCUACAGUCCGACGAUCUGCUUUUCCAAAUUCAUUACACUCAUCAGUCUGCUUUCCUGCAUAGCUUCUAUUACUAUUAAGCAAGUCUGAAUUAUAUUUCAAAGUUUUUUCAUAUAAGUCAUAUUUAUAAGGUACUUGCAACAGAGGAUUGAGCAUCA
# B7: chr10:33190432:33190433:-_ENSG00000150093_ENST00000302278|hu_mus|hu_hu_hu_mus_True|8_18 (ssRNA)
# RNA: GGGAGUUCUACAGUCCGACGAUCUACAUUUUCCAAACCUGCAUGUGAAUAAAACCCUGGCCACAGAGCCCCAAAACUACCCUACUGUGACUAAGAUGCUGCUGCUGUGAGCUUGGUUGUUGUGGGAUUUGCACGGGAGGAUUCCAACAGAGGAUUGAGCAUCA
# B8: 48270514_48270634_5294_3pUTR_ENSMUSG00000038143_ENSMUST00000079195|mouse|control|control (ssRNA)
# RNA: GGGAGUUCUACAGUCCGACGAUCAUUAAGAAUAUACCACACCAGCAGAAUGAGGACAUUCUACUGUCCAUUAUAAGGGCCCAUGUAUAUUUCUAAUCAAAAAUUACUUUAAAUGUUUGUCUCUAUAGAUAUCUUCCCAGGAAUCAACAGAGGAUUGAGCAUCA
# B9: chr9:49313425:49313426:-_ENSMUSG00000039542_ENSMUST00000166811|mus_hu|FALSE|FALSE (ssRNA)
# RNA: GGGAGUUCUACAGUCCGACGAUCUUUUUAAAGGCAAAAGACACUAGAGAAAUGAGAUGUGUGUGUGUGCAUGUGUGUUUGUGUGUGUGCGUGCGUGUGUGUGUCUGUGGUGUUGGAAAUGCUCUGGUGAAGCUGCUGUGUCACCAACAGAGGAUUGAGCAUCA
# B10: chr2:179515052:179515053:+_ENSMUSG00000000305_ENSMUST00000000314|mus_hu|mus_mus_mus_hu_False|38_108 (ssRNA)
# RNA: GGGAGUUCUACAGUCCGACGAUCGCUUUCCCGCGCAGUCACCGUGAACGCCACCUGCUCGGAGGGGACCUGCAGCUCCCGGGUGGCGAAGACUGUCCCAUCCGCCCCAACUUUGAAGUCCAUGCUGUUGGUCUCAUAUUGUGUCAACAGAGGAUUGAGCAUCA
# B11: 35840488_35842112_590_3pUTR_ENSG00000096063_ENST00000361690|human|control|control (ssRNA)
# RNA: GGGAGUUCUACAGUCCGACGAUCUCAAGACCCUGUAACACUUGCUGAAUAAUUUUUUUGACACAAGGCAGUGGAAGCCCCUGAUAAUUGGAUUUGAUGAUCCACUUGAGCAGAUGAUGCCCCAAAACUUCAAAUACCAUGCAGCAACAGAGGAUUGAGCAUCA
# B12: 135896128_135898039_2713_3pUTR_ENSMUSG00000039959_ENSMUST00000060311|mouse|control|control (ssRNA)
# RNA: GGGAGUUCUACAGUCCGACGAUCCAAUCUCGCGUGAACACACCAUCAGCUCCUCGAACUUCCCUUUGCCUUGGACCACAAGAUCAGCAGCAUCCACCAUGAUGGUAGCUCCCCAACCAACAGCUUUGGAGGCGGAUAUCAGCCCAACAGAGGAUUGAGCAUCA
# B13: chr1:78444685:78444686:-_ENSG00000162613_ENST00000370768|hu_mus|motif|central (ssRNA)
# RNA: GGGAGUUCUACAGUCCGACGAUCGCCAGCCGAGCCAGACGACGGCGGAGGCACUGUGGAGUAGUCGGCCAUACCCACGCGGCAGCACACGCUGCCGUUUCCUCGCGGAGGGAGGCGCCGCUCUCGGUUAACUGCUAAGAAAGGCAACAGAGGAUUGAGCAUCA
# B14: chr7:135832511:135832512:+_ENSMUSG00000042105_ENSMUST00000118605|mus_mus|FALSE|FALSE (ssRNA)
# RNA: GGGAGUUCUACAGUCCGACGAUCAUCCUGCCUAUUCUAGAGUUAGUAUUUACAUCAGUCAAAAACAUUAUGUCCUUAUCUAAAAGCAUUUGGCACAAAACAAGCGGUCGAGUGUUGUCGGCCUUUUUCCCCCUCCCACCCCAUCAACAGAGGAUUGAGCAUCA
# Target: T1, UNK ZnF1-3
# Experiment: nsRBNS (natural sequence RNA bind-n-seq); RBNS binding buffer (assumed for nsRBNS): 25 mM Tris pH 7.5, 150 mM KCl, 3 mM MgCl2, 0.01% Triton X-100, 500 ug/ml BSA, 20 U/ml SUPERase-In, 4 C; UNK is unkempt and MSI1 is Musashi-1; names of the RNAs are library labels; protein concentration not given here; high values mean tight binding
row,Binder,binding signal
1,B1,0.805 enrichment R
2,B2,1.77 enrichment R
3,B3,1.44 enrichment R
4,B4,2.58 enrichment R
5,B5,1.15 enrichment R
6,B6,1.71 enrichment R
7,B7,1.23 enrichment R
8,B8,1.38 enrichment R
9,B9,0.837 enrichment R
10,B10,0.73 enrichment R
11,B11,1.43 enrichment R
12,B12,1.3 enrichment R
13,B13,0.963 enrichment R
14,B14,1.51 enrichment R
